About 2,200 (0.71%) of roughly 310,000 compounds showed an effect of 50% or more. Effects have a minus sign here. Some of the results follow.
These compounds were tested against human ether-à-go-go-related gene (hERG) potassium channel (human, UniProt Q12809) (assay: primary screen, population patch clamp on CHO cells stably expressing hERG).
human ether-à-go-go-related gene (hERG) potassium channel, sequence (Q12809 whole entry, looked up): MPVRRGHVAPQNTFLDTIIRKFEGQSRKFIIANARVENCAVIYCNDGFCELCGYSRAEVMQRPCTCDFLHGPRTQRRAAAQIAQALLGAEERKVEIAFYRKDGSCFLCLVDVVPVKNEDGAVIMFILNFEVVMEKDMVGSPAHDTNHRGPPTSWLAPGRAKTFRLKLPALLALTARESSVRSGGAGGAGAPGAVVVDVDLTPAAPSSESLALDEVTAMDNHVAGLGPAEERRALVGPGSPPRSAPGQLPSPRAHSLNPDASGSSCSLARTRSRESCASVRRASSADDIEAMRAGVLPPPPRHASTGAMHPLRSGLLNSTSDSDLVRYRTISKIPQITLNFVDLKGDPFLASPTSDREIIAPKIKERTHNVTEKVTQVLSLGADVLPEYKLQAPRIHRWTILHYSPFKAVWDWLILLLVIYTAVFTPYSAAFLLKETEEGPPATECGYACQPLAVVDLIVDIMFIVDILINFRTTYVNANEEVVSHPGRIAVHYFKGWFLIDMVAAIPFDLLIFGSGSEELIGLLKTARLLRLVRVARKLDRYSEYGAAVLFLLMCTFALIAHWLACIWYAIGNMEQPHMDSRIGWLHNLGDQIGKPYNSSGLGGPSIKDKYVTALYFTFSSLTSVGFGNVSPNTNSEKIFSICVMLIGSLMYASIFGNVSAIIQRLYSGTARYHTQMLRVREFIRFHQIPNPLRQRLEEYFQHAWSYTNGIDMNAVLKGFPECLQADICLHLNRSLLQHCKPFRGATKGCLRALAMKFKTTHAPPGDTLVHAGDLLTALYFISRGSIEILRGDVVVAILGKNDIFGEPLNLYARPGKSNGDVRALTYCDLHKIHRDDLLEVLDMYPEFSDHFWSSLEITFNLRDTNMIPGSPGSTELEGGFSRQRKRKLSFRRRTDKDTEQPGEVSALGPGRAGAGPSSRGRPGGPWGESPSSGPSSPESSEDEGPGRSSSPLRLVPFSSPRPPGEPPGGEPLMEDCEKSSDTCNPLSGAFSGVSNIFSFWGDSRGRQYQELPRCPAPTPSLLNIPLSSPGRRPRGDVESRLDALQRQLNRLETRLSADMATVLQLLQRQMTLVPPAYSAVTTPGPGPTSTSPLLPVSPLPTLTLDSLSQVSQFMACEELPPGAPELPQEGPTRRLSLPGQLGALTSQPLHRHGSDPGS

Row | SMILES | hERG current change (%, negative = inhibition) at 1uM [%]
1 | O=C(O)c1cc(-c2ccc(/C=c3\sc4nc5ccc(Br)cc5n4c3=O)o2)ccc1Cl | 12.2
2 | Cc1cc(Br)c(NC(=O)Cn2c([N+](=O)[O-])cnc2C)cc1C | 8.28
3 | C/C(=N\NC(=O)c1cccnc1)c1cccc([N+](=O)[O-])c1 | 6.14
4 | O=C(COC(=O)/C=C/c1cccc(Cl)c1)Nc1ccc2[nH]c(=O)[nH]c2c1 | 3.6
5 | Cc1cc(C(=O)N/N=C2\CC(=O)CC(C)(C)C2)c(C)n1-c1ccccc1 | 14.7
6 | COc1ccc(CN2CCNC(=O)C2CC(=O)N(C)Cc2nonc2C)c(F)c1 (centres unmarked) | 2.96
7 | Cc1cccc(NC(=O)CN(C)S(=O)(=O)c2ccc(Cl)cc2)n1 | 7.22
8 | CC(C)(C)C1CCC2(CC1)C(Nc1cccc(C(F)(F)F)c1)=NC(=S)N2CC#N (centres unmarked) | 10.6
9 | CC(C)CSc1n[nH]c(=S)s1 | 8.74
10 | c1ccc(Oc2cccc(CN3CCCCC3)c2)cc1 | 0.0293
11 | COc1cccc2cc(C(=O)N3CCCc4ccccc43)oc12 | 3.23
12 | COC(=O)Cc1ccc(N(Cc2ccccc2F)S(=O)(=O)c2ccc(Cl)cc2)cc1 | 6.65
13 | CCCCNS(=O)(=O)c1ccc(S(=O)(=O)N2CCC3(CC2)OCCO3)cc1 | 9
14 | Nc1nnc(SCC(=O)NC2CCCCC2)n1-c1ccccc1 | 10.3
15 | CC(C)[C@@H](C(=O)N1CCNCC1)n1cc(CCO)nn1.Cl | 13.1
16 | COC(=O)C1=C(c2ccc3ccccc3c2)C[C@@H]2CC[C@H]1N2C(=O)NCC1CC1 | 1.51
17 | O=C(CCC(=O)c1ccccc1)NCc1ccccc1 | -2.28
18 | CC(=O)Oc1ccccc1C1=NN(C(=O)/C=C/c2ccccc2)C(c2ccccc2)C1 (centres unmarked) | 12.4
19 | Cc1nc2ccc(S(=O)(=O)NCC(=O)N3CCOCC3)cc2s1 | 5.69
20 | CCOc1ccc(NC(=O)NC2CC(=O)N(c3ccc(OC)cc3)C2)cc1 (centres unmarked) | 11.6
21 | CC1CCCCN1CCNC(=O)C1CCN(S(=O)(=O)c2cccc3nsnc23)CC1 (centres unmarked) | 12.7
22 | c1cnn(Cc2cnc(N3CCOCC3)s2)c1 | 16.7
23 | O=C(N/N=C/c1ccc([N+](=O)[O-])cc1)c1cccc2cc[nH]c12 | 8.62

Row | SMILES | hERG current change (%, negative = inhibition) at 1uM [%]
24 | CNC(=S)N1CCC(n2cnc3ccccc32)CC1 | 11.3
25 | CC(C)(C)c1ccc(-c2cc(N)n[nH]2)cc1 | 4.93
26 | Cc1cccn2c(=O)c(/C=C(\C#N)C(N)=O)c(Oc3ccccc3)nc12 | 8.69
27 | CCCOc1ccc(/C=N/NC(=S)Nc2ccccc2[N+](=O)[O-])c(O)c1 | 15.7
28 | Cc1cc(C)c(C(=O)/C=C/c2cccs2)c(=O)[nH]1 | 5.18
29 | COC(=O)C1=CN(C)C=C(C(=O)OC)C1c1ccc(Cl)cc1Cl | 9.91
30 | CN1CCN(S(=O)(=O)c2ccc3c4c(cccc24)C(=O)N3)CC1 | -0.479
31 | O=C(Cc1ccc(Cl)cc1)Nc1ccc(Cl)cn1 | 4.12
32 | O=C(NCc1ccccc1)c1ccc(OCC2CCCO2)cc1 (centres unmarked) | 7.33
33 | CCC1=C/C(=C/N(C)c2ccccc2)C(=O)S1 | -2.8
34 | O=S(=O)(c1ccc(-c2csc(-c3cccnc3)n2)cc1)N1CCOCC1 | 7.21
35 | COC(=O)c1ccc(COc2ccc3c4c(c(=O)oc3c2)CCC4)o1 | 7.49
36 | CCOC(=O)CNC(=S)N(CCCN1CCCCCC1)Cc1cccs1 | -38.1
37 | CCN(C(=O)Cn1c(=O)oc2ccccc21)c1cccc(C)c1 | 14.3
38 | COc1ccc(NC(=O)COc2ccc3c(c2)OCO3)cc1 | 17.1
39 | COC(=O)[C@H](CCSC)NC(=O)Nc1ccc(C)cc1 | 9.47
40 | O=C(Nc1ccc2nc3n(c(=O)c2c1)CCCC3)c1cccc(F)c1 | -16.4
41 | CCOc1ccc(-c2nnn(CC(=O)NCc3ccc4c(c3)OCO4)n2)cc1 | -0.994
42 | O=C(O)c1cccc(S(=O)(=O)Nc2ccccc2Cl)c1 | -10.2
43 | Cn1c(CNc2ccc(Br)cc2)nc2ccccc21 | 5.94
44 | Cc1cc(=O)[nH]c(SCC(=O)N2CCC(Cc3ccccc3)CC2)n1 | 1.08
45 | CN(C)c1ccc(C2C3CCCc4ccccc4C3=NN2C)cc1 (centres unmarked) | 7.05
46 | CCOC(=O)CC(=O)Nc1nc2ccccc2s1 | 5.39

Row | SMILES | hERG current change (%, negative = inhibition) at 1uM [%]
47 | C=CCn1c(O)c(C=Nc2ccccc2)sc1=S | 11.9
48 | CC(C)(C)C(CO)NC(=O)c1ccc[nH]1 (centres unmarked) | 10.3
49 | Cc1cc(C(=O)NCc2ccc(S(N)(=O)=O)cc2)c(C)o1 | 5
50 | COC(=O)c1ccc(-c2noc(CN(Cc3ccncc3)CC3CCCO3)n2)cc1 (centres unmarked) | -8.53
51 | O=C(CSc1ccc(-c2ccncc2)nn1)N1CCCCC1 | 1.39
52 | CC1CN(C(=O)CN2C(=O)c3ccccc3C2=O)CC(C)O1 (centres unmarked) | 14.8
53 | Cc1ccc(C(=O)c2ccc(O)cc2)cc1C | 6.98
54 | CNC(=O)c1[nH]cnc1C(=O)Nc1cccc(C)c1 | -6.37
55 | CCN(CC)S(=O)(=O)c1ccc2oc(C(=O)N3CCOCC3)c(C)c2c1 | -6.98
56 | Clc1cccc(NCc2nnc(SCc3ccccc3)o2)c1 | 4.55
57 | COc1ccccc1NC(=O)Cc1nnc(SCC(=O)c2ccc(F)cc2)n1C | 7.25
58 | N#C/C(=C\c1ccc(O)cc1)C(=O)NCc1ccccc1 | 11.2
59 | Clc1cccc(Cl)c1C[n+]1cccc2ccccc21.[Br-] | -6.58
60 | CCSc1nc(O)cc(=O)n1-c1ccc(OC)cc1 | 9.36
61 | COc1ccc(CNc2ncc(-c3ccccc3)n2C)cc1 | 12.8
62 | COc1cc(/C=N/n2c(C)nnc2C)cc(OC)c1OC | 5.83
63 | O=C1CCN(CCc2ccccc2)CCN1[C@H](CO)c1ccccc1 | -7.26
64 | O=C(c1ccccc1Cl)N1CCN(Cc2ccc3c(c2)OCO3)CC1 | -2.01
65 | COCCNC(=O)c1ccc2c(c1)S(=O)(=O)c1cc(Cl)ccc1C2=O | 10.6
66 | O=C(COC(=O)c1ccc(Br)o1)NCC1CCCO1 (centres unmarked) | 2.18
67 | Fc1ccc(OCCCCCn2ccnc2)cc1 | 5.69
68 | Cc1sc2ncn3ncnc3c2c1C | 18
69 | Cn1c(SCc2c(F)cccc2Cl)nc2c(c1=O)SCC2 | 13.7

Row | SMILES | hERG current change (%, negative = inhibition) at 1uM [%]
70 | O=C1CCC(c2ccc(-n3ccnc3)cc2)=NN1 | 9.44
71 | COc1cc([N+](=O)[O-])ccc1NC(=O)C[n+]1ccccc1.[Cl-] | 5.94
72 | Cc1nc2ccc(S(=O)(=O)NCC(=O)NCCc3ccc(Cl)cc3)cc2s1 | 27.5
73 | O=C1C(c2ccc(F)cc2)N(Cc2ccc3c(c2)OCO3)C(=O)CN1C1CCCCC1 (centres unmarked) | 3.53
74 | CC(=O)NC(CC(=O)Nc1cccc(S(=O)(=O)N2CCCCC2)c1)c1ccccc1 (centres unmarked) | 6.54
75 | Cc1cc(NC(=O)CSc2ccc3nnc(-c4ccc(Cl)cc4)n3n2)no1 | 0.212
76 | COCCn1c(=O)[nH]c2cc(C(=O)Nc3ccc(OC)c(Cl)c3)ccc2c1=O | 12.7
77 | CCOC(=O)c1ccc(NC(=O)c2c(O)[nH]c(=O)[nH]c2=O)cc1 | 14.2
78 | COc1ccccc1CNC(=O)c1ccc2c(=O)n(CC3CCCO3)c(=S)[nH]c2c1 (centres unmarked) | 10.9
79 | Cc1ccc(S(=O)(=O)/N=C(\CCl)N2CCOCC2)cc1 | 7.88
80 | CC(=O)Nc1ccc(NC(=O)COc2c(C)cc(Br)cc2C)cc1 | 7.02
81 | COc1ccc(C2C(C(=O)Nc3ccccc3OC)=C(C)Nc3ncnn32)cc1 (centres unmarked) | -5.28
82 | CCOC(=O)c1cc2c(c(CSc3nc4ccccc4c(=O)n3Cc3ccco3)c1)OCOC2 | 19.9
83 | CCN(CC)C(=O)c1ccc(-c2nnc(Nc3ccc(C(=O)NC)cc3)c3ccccc23)cc1 | 6.17
84 | Cc1ccc(Cl)cc1N1CCN(S(=O)(=O)c2ccc3[nH]c(=O)c(=O)[nH]c3c2)CC1 | 20.8
85 | CN1CCN(c2nc3ccccn3c(=O)c2C=C2C(=O)N(C)C(=O)N(C)C2=O)CC1 | 14.4
86 | COc1ccc(Cl)cc1NC(=O)C1CSC(c2ccncc2)=N1 (centres unmarked) | 10.6
87 | CCOC(=O)N1CCN(C(=O)CN(Cc2ccccc2)S(=O)(=O)c2ccc(OC)c(C)c2)CC1 | 6.12
88 | COc1ccc(N2CCN(C3CCCCC3NS(=O)(=O)c3ccccc3)CC2)cc1 (centres unmarked) | 11.3
89 | Cc1cc(C)cc(C(=O)OCC(=O)N2CCCCCC2)c1 | 11.2
90 | O=C(Oc1cccc2c(OC(=O)N3CCOCC3)cccc12)N1CCOCC1 | 17.5
91 | Cc1cc(C)cc(-n2nnn(C3C/C(=N/NC(N)=S)C4OCC3O4)c2=S)c1 (centres unmarked) | 14.4
92 | CC(C)c1c(C(=O)N/N=C/c2cccc3ccccc23)nnn1-c1nonc1N | 16.3

From PMC4336329 (PLoS ONE, 2015)
